Substitutions are numbered along the chain they refer to. Recombinant human monoclonal antibodies (heavy:light variable regions). ELISA EC50 on the named antigen, from 10 µg/ml down; IC50 against spike pseudovirus on HT1080-ACE2 cells, 48 h; lower = stronger. Calls: IC50 above 1,000 ng/ml = non-neutralizing; EC50 above 1,000 ng/ml = non-binder.
B1: C5064 (protein)
chain 1: QVQLVESGGNVVQPGRSLRLSCAASGFTFSSYSMHWVRQAPGKGLDWLAVISSDGTMKFYADSVKGRFIISRDNSRKTLHLQMNSLTAEDTALYYCARDTDTSMVTDLDYWGQGTLVTVSS
chain 2: DIQMTQSPSSLSASIGDRVTIICRASQSITTYLNWYQQKPGKAPKLLIYAASTLQSGVPARFSGSGSGTDFTLTISSLQPEDFATYYCQQSYIIPPVTFGQGTRLEIK
B2: C5073 (protein)
chain 1: QVQLVQSGAEVKKPGSSVKVSCKASGGAFINYIITWMRQAPGQGLEWMGGIIPAFGAAVYAQKFQGRVSITADESTGTAYMDLGSLRSEDTALYYCASPGPKPYCSGGSCYRYYFNYWGQGTLVTVSS
chain 2: EIVLTQSPGTLSLSPGERATLSCRASEIVSSSSLAWYQQRPGQAPRLLMYGASSRATGIPDRFSGSGSGTDFTLTISRLEPEDFAVYYCQQYGSWITFGQGTRLEIK
B3: C5072 (protein)
chain 1: QVQLVQSGAEVKKPGSSVKVSCTASGGPFRNNGFSWVRQAPGQGLEWMGVIIPMVGTASYAQKFQGRVTITADESTNTLFMELTTLRSDDTAVYYCARDRHVYGASLFFDYWGQGTLVTVSS
chain 2: DIQMTQSPSSLSASVGDRVTITCRASQTIGSYLNWYQQKPGKAPKVLIYAASTLQSGVPSRFSGSGSGADFTLTISGLQPEDFATYYCQQTYSAPRSFGQGTKLEIK
B4: C5067 (protein)
chain 1: QVQLVESGGGVVQPGRSLRLSCAASGFTFSDYAMHWVRQAPGKGLEWVSVISYDGSNEFHAASVRGRFTISRDNSKNTLSLQTNSLRVEDTAVYYCARESFRSLDYWGRGTLVTVSS
chain 2: DIQMTQSPSSLSASVGDRVTITCRASQSISSYLNWYQQKPGKAPKLLIYGASGLQSGVPSRFSGSGSGTDFTLTISSLQSEDSATYYCQQGFSPLFTFGPGTKVDIK
B5: C5068 (protein)
chain 1: B4 chain 1 with S80F, T83M, S85N
chain 2: B4 chain 2 with S80P, S83F
B6: C5065 (protein)
chain 1: QVQLVQSGAAVKKPGSSVTVSCEASGGTLSSYTLTWVRQAPGQGLEWMGRLITTLGVEDYAQQFQGRVTITADKSTGTAYLELRSLRSEDTGVYYCAREAGYSGYGAAYYFDSWGQGTLVTVSS
chain 2: QSVLTQPPSVSGAPGQRVTISCTGSNSNIGAGYDVHWYQQLPGTAPKLLIYVNNNRPSGVPDRFSGSKSGTSASLAITGLQAEDEADYYCQTYDSSLSGSLFGGGTKVTVL
B7: C5066 (protein)
chain 1: B6 chain 1 with L29F, Y32H, M48L, L51I, T53P, T54I, E58A, R84S, S85R
chain 2: B6 chain 2 with S25T, N54S, L101V, V108L
B8: C5075 (protein)
chain 1: EVQLVESGGGLVKPGGSLTLPCTASGFSFSDAWMSWVRQAPGKGLEWVGRIKSKIDGGPTEYAAPVKGRFTISRDDSKNTLFLQMNSLKTEDTAVYYCTTEAVVSSWGAFDFWGQGTMVTVSS
chain 2: EIVLTQSPATLSLSPGERATLSCRASQSVSSNYLSWYQQKPGQAPRLLIYGASTRATGIPARFSGSGSGTDFTLTISSLQPEDFAVYYCQQDYNLPITFGQGTRLEIK
B9: C5079 (protein)
chain 1: EVQLLESGGGLVQPGGSLRLSCVASGFTFSTSAMSWVRQSPGKGLEWVSAITNSGGGAFYTDSVKGRFTISRDNSKNTLYLQMNSLRAEDTAIYYCAREAMGPTMFFDYWGQGTLVTVSS
chain 2: DIQMTQSPSSLSASVGDRVTITCRASQSISRFLNWYQQKPGKAPKLLIYDASSLQSGVPSRFRGSGSGTDFTLTISSLQPEDFATYYCQQSYSSPPITFGQGTRLEIK
B10: C5078 (protein)
chain 1: EVQLVQSGAEVKKPGESLKISCKVSGYSFTYYWIAWVRQMPGKGLEWMGIIYPGDSDTRYSPSFQGQVTISGDKSISTAYLEWSSLEASDTAIYYCARRSQTVGYFDYWGQGTLVTVSS
chain 2: SYELTQPPSVSVAPGKTASISCGGANIGTKHVHWYQQQPGQAPVVVISFDTDRPSGIPERFSGSKSGNTATLTISRVEAGDEADYFCQVWDSNSEHYVFGTGIKVTV
B11: C5071 (protein)
chain 1: QVQLVESGGGVVQPGRSLRLSCAASGFTFSTYVMHWVRQTPDRGLEWVAVISDDGSYKGYSDSLKGRFTISRDNSKNTVFLQMNSLRAEDTAVYYCARDIGAAVAGLIDAFDVWGQGTMVTVSS
chain 2: DIQMTQSPSSLSASVGDTVTITCRASQSITNYLNWYQQKPGKAPKLLIYAASTLQSGVPPRFSGTGSGTDFTLTISSLQPEDFATYYCQQSYTTFMYTFGQGTKLEIK
B12: C5074 (protein)
chain 1: QVQLVESGGGVVQPGRSLRLSCATSGFTFRNYGMHWVRQAPGKGLEWVAVISYDGSTKYNVDSVKGRFTISRDNSKNTVYLQMNSLRAEDTAVYYCAKNGGGEYCSGGNCYSGYFDYWGQGTLVTVSS
chain 2: DIQMTQSPSSLSASVGDRVTITCQASQDISNSLNWYQQKPGKAPKLLIYDASNLETGVPSRFSGSGSGADFTFTISSLQPEDIATYYCQQYDSLPVTFAQGTKLEIK
B13: C5069 (protein)
chain 1: QVQLVQSGAEVKKPGASVKISCKASGYTLTSHYLHWVRQAPGQGLEWMGIINPDGGATTYAQNFQGRLSMTGDTSTSTIYMELSSLRSEDTAVYYCTRGFSFVPDIRGAFDIWGQGTMVTVS
chain 2: DIQMTQSPSTLSAFVGDRVTITCRASQSISRWLAWYQQKPGKAPKLLIYKASSLESGVPSRFSGSGSGTEFTLTISSLQPDDFATYYCQQYNSFTWTFGQGTKVEIK
B14: C5070 (protein)
chain 1: QVQLVQSGAEVKKPGASLKVSCKASGYTFTNYYMHWVRQVPGQGLEWMGIINPEAGSTTYAQKFQGRVTMTSDTSTSTLYMELSSLRSDDTAVYYCSRGFSFVPAIRGALHIWGQGTMVTVSS
chain 2: B13 chain 2 with F14S, R31T, K50R, S76N
B15: C5077 (protein)
chain 1: QVQLVQSGAEVKKPGASVKVSCKASNYPFTFYGISWVRQAPGQGLEWMGWISAKNGNTNYAQNFQGRVTVTTDTSTSTAYMELKSLTSDDTAVYYCARDFFGDGYNPLPYFDRWGQGTLVTVSS
chain 2: QSVLTQPPSASGTPGQRVTISCSGSTSNIGSNTVNWYQQLPGAAPKLLIYGDYQRPSGVPDRFSGSKSGTSASLAISGLQSEDEADYYCASWDDNFNGWLFGGGTKLTVL

target: SARS-CoV-2 Omicron BA.1 spike pseudovirus; assay: pseudovirus neutralization IC50; higher = weaker neutralization
Description: (§1)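 Single-round luciferase reporter pseudovirus mixed with antibody dilutions and put on HT1080-ACE2 clone 14 cells for 48 h; signal relative to no-antibody wells, four-parameter fit.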

Row | Binder | pseudovirus neutralization IC50 [ng/mL]
1 | B1 | > 1000
2 | B2 | > 1000
3 | B3 | 0.482
4 | B4 | 132
5 | B5 | 251
6 | B6 | 29.9
7 | B7 | 9.61
8 | B8 | 172
9 | B9 | > 1000
10 | B10 | 102
11 | B11 | > 1000
12 | B12 | > 1000
13 | B13 | > 1000
14 | B14 | > 1000
15 | B15 | 4.99

target: SARS-CoV-2 Omicron BA.4/5 spike pseudovirus; assay: as above
Description: as §1

Row | Binder | pseudovirus neutralization IC50 [ng/mL]
16 | B1 | > 1000
17 | B2 | > 1000
18 | B3 | > 1000
19 | B4 | 8.85
20 | B5 | 8.63
21 | B6 | 416
22 | B7 | 37
23 | B8 | 404
24 | B9 | > 1000
25 | B10 | 96.2
26 | B11 | > 1000
27 | B12 | > 1000
28 | B13 | > 1000
29 | B14 | > 1000
30 | B15 | > 1000

target: SARS-CoV-2 Wuhan-Hu-1 spike pseudovirus; assay: as above
Description: as §1

Row | Binder | pseudovirus neutralization IC50 [ng/mL]
31 | B1 | 656
32 | B2 | > 1000
33 | B3 | 0.254
34 | B4 | 1.75
35 | B5 | 1.47
36 | B6 | 13.8
37 | B7 | 9.54
38 | B8 | 427
39 | B9 | 556
40 | B10 | 111
41 | B11 | > 1000
42 | B12 | > 1000
43 | B13 | > 1000
44 | B14 | > 1000
45 | B15 | 5.19

target: SARS-CoV-2 Wuhan-Hu-1 spike receptor-binding domain; assay: ELISA binding EC50; higher = weaker binding; ELISA of recombinant human antibody on coated antigen, from 10 µg/ml in fourfold dilutions; four-parameter fit.

Row | Binder | ELISA binding EC50 [ng/mL]
46 | B1 | 4.7
47 | B2 | 7.11
48 | B3 | 2.17
49 | B4 | 3.51
50 | B5 | 2.08
51 | B6 | 2.72
52 | B7 | 0.354
53 | B8 | 3.61
54 | B9 | 4.86
55 | B10 | 2.42
56 | B11 | 3.81
57 | B12 | 7.13
58 | B13 | 8.03
59 | B14 | 6.96
60 | B15 | 3.68
